According to article PMC4336329 (PLoS ONE, 2015):
About 14,000 (4.5%) of roughly 310,000 compounds showed an effect of 50% or more. The effect is printed as a negative number. Some of the results follow.

Target: human ether-à-go-go-related gene (hERG) potassium channel (human, UniProt Q12809)
Test: primary screen, population patch clamp on CHO cells stably expressing hERG
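Note: peak tail current of the secondary pulse compared with the same well before compound.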

Sequence of human ether-à-go-go-related gene (hERG) potassium channel (Q12809 whole entry, looked up): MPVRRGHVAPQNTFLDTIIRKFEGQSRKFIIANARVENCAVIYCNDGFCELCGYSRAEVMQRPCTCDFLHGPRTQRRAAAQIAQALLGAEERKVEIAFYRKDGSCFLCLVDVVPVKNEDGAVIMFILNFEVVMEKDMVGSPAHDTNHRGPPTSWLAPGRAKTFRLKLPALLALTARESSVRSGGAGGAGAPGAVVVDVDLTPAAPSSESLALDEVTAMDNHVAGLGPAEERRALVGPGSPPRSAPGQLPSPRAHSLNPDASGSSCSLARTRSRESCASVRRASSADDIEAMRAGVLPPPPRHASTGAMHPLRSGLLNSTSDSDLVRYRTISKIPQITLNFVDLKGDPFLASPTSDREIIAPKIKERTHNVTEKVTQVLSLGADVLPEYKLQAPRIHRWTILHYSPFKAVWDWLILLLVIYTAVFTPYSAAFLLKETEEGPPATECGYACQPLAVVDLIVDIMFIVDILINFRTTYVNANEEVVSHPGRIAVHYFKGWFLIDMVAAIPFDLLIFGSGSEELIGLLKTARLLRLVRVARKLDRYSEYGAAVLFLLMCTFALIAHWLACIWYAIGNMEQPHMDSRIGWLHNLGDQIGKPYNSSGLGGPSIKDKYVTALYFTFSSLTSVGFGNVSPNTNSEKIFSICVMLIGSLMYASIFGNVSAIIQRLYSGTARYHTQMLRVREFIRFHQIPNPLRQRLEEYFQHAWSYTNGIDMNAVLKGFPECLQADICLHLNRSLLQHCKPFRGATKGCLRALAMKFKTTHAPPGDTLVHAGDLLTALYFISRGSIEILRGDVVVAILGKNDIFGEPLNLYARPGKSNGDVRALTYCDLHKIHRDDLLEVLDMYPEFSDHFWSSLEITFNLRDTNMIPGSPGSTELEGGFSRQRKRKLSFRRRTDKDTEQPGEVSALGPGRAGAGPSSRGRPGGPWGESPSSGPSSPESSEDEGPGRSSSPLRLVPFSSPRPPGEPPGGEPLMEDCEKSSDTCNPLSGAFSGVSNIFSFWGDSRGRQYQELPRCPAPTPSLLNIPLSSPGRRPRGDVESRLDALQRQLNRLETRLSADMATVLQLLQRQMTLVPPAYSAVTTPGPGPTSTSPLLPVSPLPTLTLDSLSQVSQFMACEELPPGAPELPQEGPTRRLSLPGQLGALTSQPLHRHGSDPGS

SMILES	hERG current change (%, negative = inhibition) at 10uM [%]
Cc1ccc(C2(c3ccc(C)cc3)NC(=O)N(Cc3c(C)noc3C)C2=O)cc1	-18.5
CCOc1ccc(N(C(C)=O)c2nc(C)cc(C)c2C#N)cc1	4.68
CC(C)Oc1ccccc1/C=N/NC(=O)c1ccc(F)cc1	-14.8
O=C(CNS(=O)(=O)c1ccccc1)N1CCN(Cc2ccccc2)CC1	5.89
Cc1ccc(/C=C/C(=O)NC(=S)Nc2ccc(S(=O)(=O)Nc3cc(C)on3)cc2)cc1	9.42
O=C1C=C(c2cc(C(F)(F)F)cc(C(F)(F)F)c2)C[C@@H](c2ccc3c(c2)OCO3)C1	10.3
CC(C)Cc1nnc(NC(=O)c2cccc(S(=O)(=O)N3CCN(C)CC3)c2)s1	-1.1
c1ccc(-c2cc(N3CCCCC3)c3ccccc3n2)cc1	6.1
Cc1sc2nc(CN3CCN(c4ccc(O)cc4)CC3)[nH]c(=O)c2c1C	14.4
O=C(CSc1ccsc1[N+](=O)[O-])NCCc1ccccc1	2.6
COCCn1c(=NC(=O)C2COc3ccccc3O2)sc2cc(S(N)(=O)=O)ccc21 (stereo not shown)	-15
COc1ccc2ccccc2c1/C=N/NC(=O)c1ccc([N+](=O)[O-])cc1	24.5
O=C(C(Cl)c1ccccc1)N1CCOCC1 (stereo not shown)	18.7
Cc1ccc(C)c(S(=O)(=O)N2CCN(C(=O)C3CCN(C(=O)c4ccc(F)cc4)CC3)CC2)c1	-30.6
c1ccc(CCNc2cnccn2)cc1	21.2
O=C(CNc1ccccc1)c1ccc([N+](=O)[O-])cc1	4.43
Cc1cc(C)c2nc3nc(C)cc(C)c3c(N)c2c1	-65.5
CCc1cccc(NC(=O)CCCCCC2NC(=O)NC2C)c1 (stereo not shown)	9.76
COc1cc(CN2CCN(C(O)(c3ccccc3)c3ccccc3)CC2)cc(OC)c1OC.O=C(O)C(=O)O	-55.1
COc1cccc(NC(=S)N2CCCN(Cc3ccc(F)cc3)C2)c1	-42.7
O/N=C/c1ccc(OCc2ccccc2)c(Cl)c1	5.8
CCCCCCSc1nc(O)c(C2OC(=O)c3c2ccc(OC)c3OC)c(=O)n1CC (stereo not shown)	5.41
CCc1c(O)nc(N2CCN(Cc3ccccc3)CC2)[nH]c1=O	5.8
COc1cccc(C2=NCCc3cc4c(cc32)OCO4)c1OC	2.12
CC1(C)CC[C@]2(C(=O)O)CC[C@]3(C)C(=CCC4[C@@]5(C)CC[C@H](O)C(C)(C)C5CC[C@]43C)C2C1 (stereo partly shown)	29.1
C=CCN(C(=O)c1ccc2c(c1)nnn2C)c1ccccc1	2.1
COc1ccc(CCNC(=O)c2cnc3n(c2=O)CCS3)cc1OC	-5.87
Cc1ccc(CNC(=O)C2CC(=O)N(c3ccc(OCC(=O)N4CCCC4)cc3)C2)cc1 (stereo not shown)	13.3

SMILES	hERG current change (%, negative = inhibition) at 10uM [%]
Cc1ccccc1CSCC(=O)NCCSc1ccccn1	-3.24
CCCC(=O)Nc1cc(-c2nn(C)c(=O)c3ccccc23)ccc1N1CCCCC1	-34.5
O=C(CSCc1ccc(Cl)cc1)Nc1nccs1	6.08
Cc1ccc(S(=O)(=O)N(CCO)c2cc3c(s2)CCCC3)cc1	-6.05
CN(C)c1ccc(/C=N/Nc2nncc3ccccc23)cc1	15.4
O=C(Nc1ccc(Cl)cn1)c1cccc2c(Br)cccc12	4.17
CCN(CC)S(=O)(=O)c1ccc2c(c1)nc(SCC(=O)N1CCOCC1)n2-c1ccccc1OC	-31.1
Cc1ccc(S(=O)(=O)N2CCN(c3ccc(N4CCOCC4)nn3)CC2)cc1[N+](=O)[O-]	-4.74
C=CCN1CCN(C(c2ccccc2OC)c2nnnn2C(C)(C)C)CC1.Cl (stereo not shown)	-0.19
Cc1ccc2nc(-c3ccc(NC(=O)CSCC(=O)O)cc3)sc2c1	30.7
CC(C)N1CC(COc2ccccc2Cl)OC1=O (stereo not shown)	-2.26
CC(C)=C1C2CCC1C1C(=O)N(c3nc(-c4ccc(F)cc4)c(C)s3)C(=O)C21 (stereo not shown)	-1.44
O=C(CCNC(=O)c1ccccc1Cl)NCc1cccnc1	-10.5
COc1ccc(N(CCCN2C(=O)c3cccc4cccc(c34)C2=O)C(=O)c2cccnc2)cc1	-28.7
Cc1cc(C)cc(C(=O)NCC(=O)OCc2cc([N+](=O)[O-])cc3c2OCOC3)c1	-21
CCC(CC)n1[nH]c(=O)c2c(C)cc(C)nc21	10.7
Cc1cccc(CSCCNC(=O)CSCc2ccc([N+](=O)[O-])cc2)c1	-47.8
COc1ccc(/C=C/C(=O)NC(=S)NNC(=O)[C@H]2C[C@@H]2c2ccccc2)cc1OC	6.04
O=C(CS(=O)CC(=O)N(CC(=O)NC1CCCC1)c1ccccc1F)Nc1ccc(F)cc1 (stereo not shown)	-0.187
O=C(Nc1cc([N+](=O)[O-])ccc1N1CCCC1)c1ccco1	-34.5
O=C1CCCc2c1sc1nc3n(c(=O)c21)CCCCC3	3.11
Cc1nn(-c2ccccc2)c2[nH]c(=O)cc(C(F)F)c12	-5.67
COCCN1CCN(C(=O)C2CCC(=O)N(CCc3cccc(F)c3)C2)CC1 (stereo not shown)	9.41
COc1ccc(NC(=O)c2cccc(N3C(=O)C4C5CCC(C5)C4C3=O)c2)cc1 (stereo not shown)	13.9
CCOC(=O)N1CCC(NC(=O)CSCc2nc(-c3cccc(OC)c3)oc2C)CC1	-17.6
Cc1ccc(-c2nc3ccccc3c(=O)n2CCN2CCOCC2)cc1	-12.1
O=C(NCCc1ccc(Cl)cc1)C1CCN(S(=O)(=O)c2ccc(Br)s2)CC1	-12.8
